Data from the supplement of paper PMC8728848.
The other results are listed elsewhere or left out.

Assays:
Test in all cases: glycan array binding signal (z-score within array); higher = stronger binding
Details in all cases: glycan notation: IUPAC condensed, linker removed
Gal4S6S(b1-4)GlcNAc = target: Gal4S6S(b1-4)GlcNAc
Outline: (§1)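 Glycan array binding is given as a within-array Z-score, which can be read as non-binding when negative. The arrays, 3228 of them, came from the Consortium for Functional Glycomics database and were retained only where the protein sequence was available. Z-scores were averaged across arrays of the same protein sequence at different concentrations or buffers and across linkers.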

Gal6S(b1-3)GlcNAc = target: Gal6S(b1-3)GlcNAc
Outline: as §1

Gal6S(b1-3)GlcNAc6S = target: Gal6S(b1-3)GlcNAc6S
Outline: as §1

Gal6S(b1-4)Glc = target: Gal6S(b1-4)Glc
Outline: as §1

Gal6S(b1-4)Glc6S = target: Gal6S(b1-4)Glc6S
Outline: as §1

Gal6S(b1-4)GlcNAc = target: Gal6S(b1-4)GlcNAc
Outline: as §1

Gal6S(b1-4)GlcNAc6S = target: Gal6S(b1-4)GlcNAc6S
Outline: as §1

GalNAc(a1-3)Gal = target: GalNAc(a1-3)Gal
Outline: as §1

GalNAc(a1-3)GalNAc = target: GalNAc(a1-3)GalNAc
Outline: as §1

[1] = target: GalNAc(a1-3)GalNAc(a1-3)Gal(a1-4)Gal(b1-4)GlcNAc
Outline: as §1

[2] = target: GalNAc(a1-3)GalNAc(b1-3)Gal(a1-4)Gal(b1-4)Glc
Outline: as §1

GalNAc(b1-3)Gal = target: GalNAc(b1-3)Gal
Outline: as §1

[3] = target: GalNAc(b1-3)Gal(a1-4)Gal(b1-4)GlcNAc
Outline: as §1

[4] = target: GalNAc(b1-3)Gal(a1-4)Gal(b1-4)GlcNAc(b1-3)Gal(b1-4)Glc
Outline: as §1

[5] = target: GalNAc(b1-3)Gal(a1-6)Gal(b1-4)Glc
Outline: as §1

GalNAc(b1-3)GalNAc = target: GalNAc(b1-3)GalNAc
Outline: as §1

GalNAc(b1-4)GlcNAc = target: GalNAc(b1-4)GlcNAc
Outline: as §1

[6] = target: GalNAc(b1-4)GlcNAc(b1-2)Man(a1-3)[GalNAc(b1-4)GlcNAc(b1-2)Man(a1-6)]Man(b1-4)GlcNAc(b1-4)GlcNAc
Outline: as §1

GalNAc(b1-6)GalNAc = target: GalNAc(b1-6)GalNAc
Outline: as §1

Glc(a1-4)Glc = target: Glc(a1-4)Glc
Outline: as §1

Glc(a1-6)Glc(a1-6)Glc = target: Glc(a1-6)Glc(a1-6)Glc
Outline: as §1

Glc(b1-4)Glc = target: Glc(b1-4)Glc
Outline: as §1

Glc(b1-6)Glc = target: Glc(b1-6)Glc
Outline: as §1

GlcA(b1-3)Gal = target: GlcA(b1-3)Gal
Outline: as §1

GlcA(b1-3)GlcNAc = target: GlcA(b1-3)GlcNAc
Outline: as §1

GlcA(b1-6)Gal = target: GlcA(b1-6)Gal
Outline: as §1

[7] = target: GlcNAc(a1-3)Gal(b1-4)GlcNAc
Outline: as §1

[8] = target: GlcNAc(a1-4)Gal(b1-3)GlcNAc
Outline: as §1

[9] = target: GlcNAc(a1-4)Gal(b1-4)GalNAc
Outline: as §1

[10] = target: GlcNAc(a1-4)Gal(b1-4)GlcNAc
Outline: as §1

[11] = target: GlcNAc(a1-4)Gal(b1-4)GlcNAc(b1-3)Gal(b1-4)Glc
Outline: as §1

[12] = target: GlcNAc(a1-4)Gal(b1-4)GlcNAc(b1-3)Gal(b1-4)GlcNAc
Outline: as §1

[13] = target: GlcNAc(a1-4)Gal(b1-4)GlcNAc(b1-3)Gal(b1-4)GlcNAc(b1-3)Gal(b1-4)GlcNAc
Outline: as §1

[14] = target: GlcNAc(a1-4)Gal(b1-4)GlcNAc(b1-3)Gal(b1-4)[Fuc(a1-3)]GlcNAc(b1-3)Gal(b1-4)[Fuc(a1-3)]GlcNAc
Outline: as §1

[15] = target: GlcNAc(a1-6)Gal(b1-4)GlcNAc
Outline: as §1

[16] = target: GlcNAc(b1-2)Gal(b1-3)GalNAc
Outline: as §1

[17] = target: GlcNAc(b1-2)Man(a1-3)[GlcNAc(b1-2)Man(a1-6)]Man(b1-4)GlcNAc(b1-4)GlcNAc
Outline: as §1

[18] = target: GlcNAc(b1-2)Man(a1-3)[GlcNAc(b1-2)Man(a1-6)]Man(b1-4)GlcNAc(b1-4)[Fuc(a1-6)]GlcNAc
Outline: as §1

[19] = target: GlcNAc(b1-2)Man(a1-3)[GlcNAc(b1-4)][GlcNAc(b1-2)Man(a1-6)]Man(b1-4)GlcNAc(b1-4)GlcNAc
Outline: as §1

[20] = target: GlcNAc(b1-2)[GlcNAc(b1-4)]Man(a1-3)[GlcNAc(b1-2)Man(a1-6)]Man(b1-4)GlcNAc(b1-4)GlcNAc
Outline: as §1

[21] = target: GlcNAc(b1-2)[GlcNAc(b1-4)]Man(a1-3)[GlcNAc(b1-4)][GlcNAc(b1-2)Man(a1-6)]Man(b1-4)GlcNAc(b1-4)GlcNAc
Outline: as §1

[22] = target: GlcNAc(b1-2)[GlcNAc(b1-4)]Man(a1-3)[GlcNAc(b1-4)][GlcNAc(b1-2)[GlcNAc(b1-6)]Man(a1-6)]Man(b1-4)GlcNAc(b1-4)GlcNAc
Outline: as §1

[23] = target: GlcNAc(b1-2)[GlcNAc(b1-6)]Man(a1-6)[GlcNAc(b1-2)Man(a1-3)]Man(b1-4)GlcNAc(b1-4)GlcNAc
Outline: as §1

[24] = target: GlcNAc(b1-2)[GlcNAc(b1-6)]Man(a1-6)[GlcNAc(b1-2)Man(a1-3)][GlcNAc(b1-4)]Man(b1-4)GlcNAc(b1-4)GlcNAc
Outline: as §1

GlcNAc(b1-3)Gal = target: GlcNAc(b1-3)Gal
Outline: as §1

B1: ASAL (Allium sativum), P83886 (protein)
chain: MGRTTSSPKAMMRIATVAAILTILASTCMARNVLTNGEGLYAGQSLDVEQYKFIMQDDCNLVLYEYSTPIWASNTGVTGKNGCRAVMQRDGNFVVYDVNGRPVWASNSVRGNGNYILVLQKDRNVVIYGSDIWSTGTYRRSVGGAVVMAMNGTVDGGSVIGPVVVNQNVTAAIRKVGTGAA
glycan array binding signal (z-score) (Gal4S6S(b1-4)GlcNAc): -0.273
glycan array binding signal (z-score) (Gal6S(b1-3)GlcNAc): -0.241
glycan array binding signal (z-score) (Gal6S(b1-3)GlcNAc6S): -0.271
glycan array binding signal (z-score) (Gal6S(b1-4)Glc): -0.287
glycan array binding signal (z-score) (Gal6S(b1-4)Glc6S): -0.24
glycan array binding signal (z-score) (Gal6S(b1-4)GlcNAc): -0.193
glycan array binding signal (z-score) (Gal6S(b1-4)GlcNAc6S): -0.163
glycan array binding signal (z-score) (GalNAc(a1-3)Gal): -0.198
glycan array binding signal (z-score) (GalNAc(a1-3)GalNAc): -0.142
glycan array binding signal (z-score) [1]: -0.316
glycan array binding signal (z-score) [2]: -0.272
glycan array binding signal (z-score) (GalNAc(b1-3)Gal): -0.236
glycan array binding signal (z-score) [3]: -0.274
glycan array binding signal (z-score) [4]: -0.175
glycan array binding signal (z-score) [5]: -0.203
glycan array binding signal (z-score) (GalNAc(b1-3)GalNAc): -0.311
glycan array binding signal (z-score) (GalNAc(b1-4)GlcNAc): -0.236
glycan array binding signal (z-score) [6]: -0.14
glycan array binding signal (z-score) (GalNAc(b1-6)GalNAc): -0.24
glycan array binding signal (z-score) (Glc(a1-4)Glc): -0.279
glycan array binding signal (z-score) (Glc(a1-6)Glc(a1-6)Glc): -0.234
glycan array binding signal (z-score) (Glc(b1-4)Glc): -0.269
glycan array binding signal (z-score) (Glc(b1-6)Glc): -0.289
glycan array binding signal (z-score) (GlcA(b1-3)Gal): 5.39
glycan array binding signal (z-score) (GlcA(b1-3)GlcNAc): 0.496
glycan array binding signal (z-score) (GlcA(b1-6)Gal): -0.307
glycan array binding signal (z-score) [7]: -0.232
glycan array binding signal (z-score) [8]: -0.245
glycan array binding signal (z-score) [9]: -0.185
glycan array binding signal (z-score) [10]: -0.223
glycan array binding signal (z-score) [11]: -0.194
glycan array binding signal (z-score) [12]: -0.177
glycan array binding signal (z-score) [13]: -0.273
glycan array binding signal (z-score) [14]: 0.214
glycan array binding signal (z-score) [15]: -0.156
glycan array binding signal (z-score) [16]: -0.277
glycan array binding signal (z-score) [17]: 3.58
glycan array binding signal (z-score) [18]: 2.58
glycan array binding signal (z-score) [19]: -0.248
glycan array binding signal (z-score) [20]: -0.202
glycan array binding signal (z-score) [21]: -0.289
glycan array binding signal (z-score) [22]: -0.213
glycan array binding signal (z-score) [23]: -0.252
glycan array binding signal (z-score) [24]: -0.283
glycan array binding signal (z-score) (GlcNAc(b1-3)Gal): -0.3
